# Out of some 50,000 compounds screened, about 800 (1.6%) showed an effect of 50% or more. The list shows a part of the results.
# Target: Bcl-2-like protein 10 (Homo sapiens) (UniProt Q9HD36)
# Test: Phenotype converters, Bcl-B/TR3 peptide binding displacement, primary biochemical FP (AID 1240);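 also: 0% = Bcl-B with tracer peptide and DMSO and 100% = tracer peptide lacking Bcl-B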
# Conditions: GST-Bcl-B / FITC-TR3 peptide fluorescence polarization; stronger effect = higher value; compound at 3.75 mg/L
# Chain of UniProt Q9HD36 (Q9HD36 whole entry, looked up): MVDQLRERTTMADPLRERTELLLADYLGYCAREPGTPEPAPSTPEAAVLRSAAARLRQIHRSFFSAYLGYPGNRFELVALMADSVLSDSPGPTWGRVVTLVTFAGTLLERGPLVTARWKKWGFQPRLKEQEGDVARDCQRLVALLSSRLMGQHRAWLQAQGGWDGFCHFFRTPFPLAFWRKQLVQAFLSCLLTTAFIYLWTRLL
row,SMILES,displacement [%]
1,C=CCSc1nc2sc3c(c2c(=O)n1-c1ccccc1)CCc1ccccc1-3,-1.3
2,COc1ccc(S(=O)(=O)N2CCN(C/C=C/c3ccccc3)CC2)cc1[N+](=O)[O-],-9.7
3,O=P(c1ccccc1)(c1ccccc1)c1ccccc1O,2.7
4,Cc1cc(N2CCN(C(c3ccccc3)c3ccccc3)CC2)nc2ccccc12,10.3
5,CC(=O)N1C(=O)/C(=C\C(=O)c2ccc([N+](=O)[O-])cc2)c2ccccc21,0.8
6,O=C(Nc1ccc(F)cc1)C(=O)NC1CC1,-4.4
7,CCOC(=O)c1ccccc1NC(=O)CN(c1cccc(Br)c1)S(=O)(=O)c1ccccc1,6.1
8,COc1ccc(NC(=O)c2ccc(CSc3ccc(Br)cc3)cc2)cc1,8.3
9,COc1ccc(OCC(=O)Nc2ccc(I)cc2C)cc1,15.2
10,CCOc1c(I)cc(/C=C2\C(=O)NC(=O)N(c3ccc(OC)cc3)C2=O)cc1OC,-7.8
11,COc1cc(C2NC(=O)NC(C)=C2C(=O)Nc2ccc(Br)cc2)cc(OC)c1OC (configuration not stated),-3
12,O=C(Nc1ccc(Br)cn1)c1cccc(Cl)c1,-10.4
13,COc1ccc(OC)c(NC(=O)c2ccccc2CCc2ccccc2)c1,9.3
14,O=C1NN(c2ccc(Cl)c(Cl)c2)C(=O)/C1=C/c1cccc(Br)c1,-4.7
15,Cc1ccc(/C=N\Nc2nc(N3CCCCC3)nc(N3CCCCC3)n2)o1,14.2
16,CC1(C)C(c2cccs2)=[N+]([O-])C2(CCCCCC2=O)N1O (configuration not stated),-3.2
17,O=C(Nc1ccc(Cl)cc1)c1ccccc1[N+](=O)[O-],2.5
18,CCC(=O)Nc1cccc(-c2nc3ccccc3s2)c1C,2.3
19,Cc1ccccc1OCCc1c(C)n[nH]c1C,11.6
20,O=c1/c(=C/c2ccccn2)sc2nc3ccccc3n12,102
21,CC(=O)C1=C(O)C(=O)N(CC2CCCO2)C1c1ccc(F)cc1 (configuration not stated),-1
22,CCOC(=O)c1ccccc1NC(=O)CN(c1ccc(C)cc1)S(=O)(=O)c1ccc(OCC)cc1,11.4
23,O=C(O)c1ccc(NC(=O)c2ccc(Cl)c([N+](=O)[O-])c2)cc1,46.2

row,SMILES,displacement [%]
1,COc1c2ccoc2nc2c(OC)c(OCC(O)C(C)(C)O)ccc12 (configuration not stated),-5.7
2,O=C(Nc1nccs1)c1cccc(N2C(=O)c3ccccc3C2=O)c1,21.6
3,O=C(O)Cc1ccc(NC(=O)C2CC=CCC2C(=O)O)cc1 (configuration not stated),-9.8
4,Cc1sc(NC(=O)c2ccc(F)cc2)nc1C12CC3CC(CC(C3)C1)C2,14.7
5,CC(=O)c1cccc(Nc2ncnc3ccc(Br)cc23)c1,13.7
6,CCOC(=O)c1ccc(NC(=O)Nc2nc(-c3ccccc3)cs2)cc1,10.9
7,O=C(N/N=C/c1ccc(Sc2cccc3cccnc23)o1)c1cccc(F)c1,-37.2
8,O=C1NN(c2ccc(Cl)c(Cl)c2)C(=O)/C1=C/c1ccc(Cl)c([N+](=O)[O-])c1,34.5
9,Cc1ccc2nc(N3CCOCC3)c(C=O)c(=O)n2c1,-2.4
10,COc1ccc(NCN2C(=O)CSC2=O)cc1Cl,17.8
11,O=C(O)c1cccc([N+](=O)[O-])c1C(=O)Nc1nc2c(s1)CCCC2,-5.1
12,CCC(=O)N(CCC1(c2ccc(F)cc2)CCOC(C)(C)C1)Cc1ccc(OC)c(OC)c1 (configuration not stated),8.8
13,Cc1ccc(N2C(=O)C3C4CC(=O)C(c5ccccc54)C3C2=O)cc1 (configuration not stated),3.5
14,COCCNC(=O)COc1ccc2ccccc2c1,-6
15,CC1CN=C(NC(=S)Nc2ccccc2)S1 (configuration not stated),6.9
16,CC(C(=O)N1CCc2ccccc2C1)N1C(=O)c2ccccc2C1=O (configuration not stated),14.8
17,CCC(=O)c1ccc(N2CCN(C(=O)c3cccc(F)c3)CC2)c(F)c1,-15.1
18,Cc1cc(C)cc(-n2c(C)cc(/C=C3\NC(=O)NC3=O)c2C)c1,8.7
19,O=S(=O)(Cc1ccccc1)CC(O)COCc1ccc(Cl)cc1 (configuration not stated),-4.5
20,CCOC(=O)C12CC3CC(CC(C3)C1)C2,-12.2
21,NC(=O)c1cc(NC(=O)C(c2ccccc2)c2ccccc2)ccc1Cl,11.4
22,C/C(=N\Nc1nc(-c2ccc(C)cc2)nc2ccccc12)c1ccc(N)cc1,4.2
23,COc1cc(/C=N/NC(=O)CCN2CCCCC2)ccc1O,-12.9

row,SMILES,displacement [%]
1,Cc1onc(-c2c(Cl)cccc2Cl)c1C(=O)Nc1ccc(Cl)cc1Cl,-1.3
2,O=c1c2cnn(-c3ccccc3)c2nc(-c2ccccc2)n1-c1ccc(Br)cc1,9.3
3,O=C(c1ccc([N+](=O)[O-])cc1)N1CCN(C(=O)c2cccs2)CC1,2.6
4,Cc1ccc(C(=O)C[n+]2cccc(C(N)=O)c2)cc1[N+](=O)[O-],20.9
5,O=C(N/N=C/c1cc(I)cc(I)c1O)C(O)c1ccccc1 (configuration not stated),8.2
6,O=C(Nc1ccccc1)c1ccc2ccccc2n1,6.8
7,O=C(NCc1ccncc1)/C(=C/c1ccc(F)cc1)NC(=O)c1ccccc1,5.2
8,CCN(CC)c1ccc(NC(=O)/C(=C\c2ccccc2)NC(C)=O)cc1,0.9
9,Cc1ccc(N2C(=O)CC(Sc3nc4ccccc4s3)C2=O)cc1C (configuration not stated),-14.4
10,C[n+]1cccc(C(=O)NCCOC(=O)c2ccccc2)c1,6.1
11,O=C(Cc1ccccc1)Nc1ccc(Cl)c(-c2nc3ncccc3o2)c1,7.3
12,O=C(Nc1ccc(C(=O)N2CCOCC2)cc1)c1ccccc1Cl,-2.5
13,COc1ccc(OCC(=O)Nc2ccc3ccccc3c2)cc1,-1
14,O=[N+]([O-])c1ccc(C2Nc3ccc([N+](=O)[O-])cc3C3C=CCC32)cc1 (configuration not stated),5
15,O=C(O)c1ccc(-c2c(Cl)cc([N+](=O)[O-])cc2Cl)o1,4.5
16,CCOC(=O)/C(C#N)=C\c1cccc([N+](=O)[O-])c1,13.5
17,Cc1cc(Nc2ccc(Br)cc2)nc2ccccc12,-0.3
18,NCCCNc1ccccc1[N+](=O)[O-],10.2
19,O=C(CN(Cc1ccccc1)S(=O)(=O)c1ccccc1)Nc1ccc(Cl)cc1Cl,9.3
20,O=C(c1ccc(F)cc1)N1CCN(Cc2ccco2)CC1,6.5
21,Cc1ccc2oc(-c3cc(NC(=O)COc4ccc(Cl)cc4C)ccc3O)nc2c1,6.5
22,C=CCNC(=O)CN(c1cc(Cl)cc(Cl)c1)S(C)(=O)=O,-2
23,O=C(O)/C=C/C(=O)OCCCCCCOC(=O)/C=C/C(=O)OCCCCCCO,-3

row,SMILES,displacement [%]
1,N/C(=N\OC(=O)c1ccc(Cl)cc1)c1ccccn1,-11.4
2,CCN(CC)C(=O)c1sc(N)c(C(=O)OC(C)C)c1C,-2
3,COc1ccc(OC)c(NC(=O)c2ccc(C)o2)c1,2.8
4,O=C(Nc1ccc2ccccc2c1)c1ccc(Cl)c(Cl)c1,-6.1
5,COc1cc(Cc2ccc(NC(=O)C(F)(F)F)c(OC)c2)ccc1NC(=O)C(F)(F)F,5.6
6,Cc1ccc(S(=O)(=O)C(CC(=O)c2ccccc2)c2cccs2)cc1 (configuration not stated),8
7,Cc1cc(Cl)ccc1OC(=O)/C=C/c1cccc([N+](=O)[O-])c1,5.6
8,O=C(Nc1ccc(Cl)cn1)c1cccc(F)c1,-0.7
9,CCCOc1ccc(C(=O)Nc2ccccc2-c2ccccc2)cc1,0
10,COc1ccc(Cl)cc1NC(=O)C1CCCO1 (configuration not stated),-5.6
11,CCOc1ccc(C(O)c2cnc(CC)n2C)cc1 (configuration not stated),1.9
12,Clc1ccc(/C=C/C=Nc2ccc(-c3nc4ccccc4o3)cc2)cc1,-1.7
13,C#CCSc1nc2ccc([N+](=O)[O-])cc2s1,2
14,COc1ccc(-c2csc(NC(C)=O)c2C(=O)O)cc1,11.7
15,Cc1ccc(N2NC(=O)/C(=C/C=C/c3ccccc3)C2=O)cc1C,8.4
16,COc1cccc(NC(=O)C2C3/C=C\CCCCC32)c1 (configuration not stated),-4.6
17,COc1ccc(C2=CC=C(c3ccc(OC)cc3)C2)cc1,13.6
18,Cc1ccc(-c2cc(C(=O)N/N=C/c3c(Cl)cccc3Cl)[nH]n2)cc1,-2.6
19,Nc1nnc(-c2ccc(C(=O)O)cc2)s1,1.4
20,COc1ccccc1OCCSc1nc2ccccc2n1CCC(=O)O,-9.8
21,O=C1c2ccccc2C(=O)N1CCc1nc2ccccc2c(=O)n1-c1ccccn1,13.4
22,COc1cc(/C=C2\SC(=S)NC2=O)ccc1Oc1ccc([N+](=O)[O-])cn1,20.6
23,O=C(NCc1ccccc1)c1ccc(CN2CCN(c3ccccc3)CC2)cc1,-5.8

row,SMILES,displacement [%]
1,COc1ccc(N2C(=O)c3ccccc3NC2c2ccc(Br)cc2)cc1 (configuration not stated),9.6
2,O=C(Cc1ccc(Cl)cc1)NNC(=O)c1cc(Cl)ccc1O,-26.3
3,CCOC(=O)c1ccc(NC(=O)c2ccc[n+]([O-])c2)cc1,-10.9
4,O=[N+]([O-])c1cc(C(F)(F)F)ccc1N1CCN(S(=O)(=O)c2ccccc2)CC1,15
5,O=C1/C(=C/c2ccc(-c3ccc(Cl)cc3Cl)o2)SC(=S)N1CC1CCCO1 (configuration not stated),-13.2
6,CC(C)c1cccc(C(C)C)c1NC(=O)c1ccc(C(=O)C(=O)c2ccccc2)cc1,-5.1
7,Cc1cccc(C(=O)N2CCN(c3ccccc3)CC2)c1,-5.8
8,CCCn1c(=O)c(C(=O)Nc2cc(Cl)ccc2OC)c(O)c2ccccc21,9
9,Nc1nonc1/C(=N\OC(=O)Nc1ccccc1)N1CCOCC1,-6.6
10,O=C(O)CCCCCN1C(=O)C(=O)/C(=C(/O)c2ccccc2)C1c1ccccc1[N+](=O)[O-] (configuration not stated),3
11,CCOC(=O)c1ccccc1NC(=O)c1cccc([N+](=O)[O-])c1C,2.7
12,CC(Nc1cc(=O)n(C)c(=O)[nH]1)c1ccccc1 (configuration not stated),-6.4
13,CCN(CC)c1ccc(/C=N/NS(C)(=O)=O)cc1,7.3
14,Cc1cc(C)c2nc3s/c(=C\c4ccc([N+](=O)[O-])cc4)c(=O)n3c2c1,-6.3
15,COCCCNS(=O)(=O)c1ccc(OC)cc1,-2.7
16,O=C1CC(Cc2ccc(Cl)cc2)C(=O)N1C1CCCCC1 (configuration not stated),-6.7
17,CC(C)(C)c1cc(Br)ccc1OCC(=O)O,-7.2
18,CC(C)CCNC(=O)c1ccccc1C(=O)NCCC(C)C,-4.8
19,COc1ccc(C(=O)N2CCN(C(=O)c3cccc(F)c3)CC2)cc1OC,6.2
20,O=C(Nc1c(Cl)cccc1Cl)c1cc2c(ccc3ccccc32)oc1=O,-9.3
